Experimental data reported in the BET-seq Pho4 binding data (Le et al. 2018).
The list shows a part of the results. These are noisy estimates, calculated here from bound and input reads.

biological target: T1, Pho4 (S. cerevisiae) (UniProt P07270); assay: relative binding free energy (BET-seq); higher = weaker binding; details: reference: library average
T1 sequence: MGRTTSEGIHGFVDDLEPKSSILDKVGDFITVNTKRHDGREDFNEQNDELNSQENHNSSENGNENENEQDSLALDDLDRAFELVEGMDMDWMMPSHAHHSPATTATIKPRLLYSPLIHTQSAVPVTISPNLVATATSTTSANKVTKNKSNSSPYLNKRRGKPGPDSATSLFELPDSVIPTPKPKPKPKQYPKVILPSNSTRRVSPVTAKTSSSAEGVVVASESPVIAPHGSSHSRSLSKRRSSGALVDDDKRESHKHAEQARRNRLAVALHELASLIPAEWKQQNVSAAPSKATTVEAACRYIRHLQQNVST

Sequence	relative binding free energy
TGAGTCACGTGTGGGG	0.18 kcal/mol
TTTAGCACGTGATCTG	0.09 kcal/mol
TGATCCACGTGTGTTG	0.04 kcal/mol
CCGTTCACGTGTGGGA	0.31 kcal/mol
GATGTCACGTGGCCGG	-0.02 kcal/mol
AGGCACACGTGAGGGT	0.17 kcal/mol
GTATTCACGTGTATAG	0.21 kcal/mol
TTTGCCACGTGAATGG	0.08 kcal/mol
CGTTACACGTGAATGT	0.33 kcal/mol
GTTTACACGTGGCGTT	0.1 kcal/mol
AGGCGCACGTGGGCGT	-0.3 kcal/mol
GGTGGCACGTGGTATT	-0.06 kcal/mol
AGCGTCACGTGAGGGG	0.21 kcal/mol
TGTGGCACGTGTCCGG	-0.26 kcal/mol
TTCCGCACGTGGTGTG	-0.09 kcal/mol
TAGTACACGTGATTTG	0.22 kcal/mol
TTAAACACGTGGTTTC	0.02 kcal/mol
AACTGCACGTGAGGTT	0.19 kcal/mol
TGGGACACGTGAGGAG	0.18 kcal/mol
GTCGGCACGTGTAGTA	-0.03 kcal/mol
TGTTACACGTGGTAGG	0.11 kcal/mol
GGGATCACGTGGCGTG	0.01 kcal/mol
ATACGCACGTGTGGGT	-0.06 kcal/mol
GAGCTCACGTGAGGGA	0.36 kcal/mol
AAGTGCACGTGGTGCT	-0.12 kcal/mol
GTTATCACGTGCGGCA	0.3 kcal/mol

Sequence	relative binding free energy
TTGGGCACGTGTTCGT	-0.05 kcal/mol
AGGCGCACGTGGTTAT	-0.08 kcal/mol
TTCGTCACGTGGGTTA	0.01 kcal/mol
CGGCGCACGTGATTGT	0.1 kcal/mol
GGGGGCACGTGAAGGG	0.25 kcal/mol
CTAGGCACGTGTAAGA	0.12 kcal/mol
GAGTGCACGTGAATTT	0.38 kcal/mol
TGCGGCACGTGACGTG	-0.12 kcal/mol
TGAACCACGTGTGGGG	0.06 kcal/mol
GTTATCACGTGGGCAT	0.08 kcal/mol
TTCAGCACGTGGTGAC	-0.01 kcal/mol
AGATTCACGTGGCGCG	0.27 kcal/mol
GGGGACACGTGGAAGA	0.08 kcal/mol
TGTGGCACGTGGAACT	-0.02 kcal/mol
CGCGTCACGTGTCGGT	0.13 kcal/mol
TAGCACACGTGTTGTG	-0.12 kcal/mol
TGGGTCACGTGGCATA	-0.09 kcal/mol
TTTTGCACGTGGATTC	-0.15 kcal/mol
TTATTCACGTGGATTC	0.28 kcal/mol
TTTGTCACGTGGTCTG	-0.04 kcal/mol
CGTGTCACGTGTCGTA	0.15 kcal/mol
AAGGGCACGTGATGGT	-0.04 kcal/mol
AGCTGCACGTGAGGTT	0.27 kcal/mol
CTGGGCACGTGCTCGT	-0.15 kcal/mol
GCTAACACGTGGGTTT	-0.11 kcal/mol
TTACACACGTGGAGTT	0.02 kcal/mol

Sequence	relative binding free energy
GGCGGCACGTGCTGTA	-0.13 kcal/mol
ACCGTCACGTGAGGGT	0.25 kcal/mol
AGTTACACGTGGATAG	0.17 kcal/mol
GATAGCACGTGTTTAA	0.27 kcal/mol
TAGCACACGTGTGTTG	0.05 kcal/mol
TTGGACACGTGTGCCT	0.05 kcal/mol
ATGGGCACGTGGGTTC	-0.25 kcal/mol
AATGTCACGTGGGCGC	-0.05 kcal/mol
TTGGTCACGTGTGGGT	0.17 kcal/mol
CAGGGCACGTGTGTGC	-0.21 kcal/mol
TTGCGCACGTGAGGTG	0.16 kcal/mol
AAATACACGTGTGTTT	0.13 kcal/mol
AAGCGCACGTGTGGAG	-0.05 kcal/mol
TAGAGCACGTGCGGGC	0.04 kcal/mol
AGTTGCACGTGTATTT	0.09 kcal/mol
AGTCGCACGTGTGCTG	-0.01 kcal/mol
TTGGGCACGTGAGATA	0.21 kcal/mol
GATGACACGTGGGGCA	-0.11 kcal/mol
GGTCGCACGTGTGTCT	0.05 kcal/mol
TAGCTCACGTGATTTG	0.37 kcal/mol
AAAAGCACGTGTCGGG	0 kcal/mol
TAGCGCACGTGGTAGA	-0.14 kcal/mol
GTCTGCACGTGTTCGT	0.03 kcal/mol
GTTGCCACGTGAAAGT	0.27 kcal/mol
TATGTCACGTGTTACG	0.09 kcal/mol
AGGTTCACGTGTTCAT	0.23 kcal/mol

Sequence	relative binding free energy
AATAGCACGTGAAATG	0.32 kcal/mol
GGCGGCACGTGAGCTG	0.12 kcal/mol
GGTTTCACGTGGTTAC	0.37 kcal/mol
CTTGTCACGTGCTCGT	0.22 kcal/mol
TTAATCACGTGCTTTT	0.09 kcal/mol
AGTGGCACGTGCGGCA	-0.14 kcal/mol
TTGGACACGTGCTATG	0 kcal/mol
ATTGGCACGTGGTCGA	-0.29 kcal/mol
ATTAGCACGTGGGGCG	-0.19 kcal/mol
GATTACACGTGAATGT	0.31 kcal/mol
CAGGGCACGTGTGCTT	0 kcal/mol
TGGAACACGTGTCAGT	0.14 kcal/mol
TGGCTCACGTGTAGCG	0.23 kcal/mol
CGGAACACGTGGTGTT	-0.15 kcal/mol
GGGGGCACGTGTCGGG	-0.02 kcal/mol
ATTGTCACGTGTGGAC	0.07 kcal/mol
GGTATCACGTGAGGTG	0.25 kcal/mol
TATGACACGTGGTAGA	-0.01 kcal/mol
GTTTGCACGTGCTGAA	0.1 kcal/mol
CAGTGCACGTGTTGTT	-0.03 kcal/mol
GAGCTCACGTGGCGGT	0.29 kcal/mol
TGGGGCACGTGCGCTT	-0.29 kcal/mol
CTGGTCACGTGGTCAG	-0.09 kcal/mol
TCGTACACGTGCGTGG	-0.02 kcal/mol
AGAGTCACGTGGGTCG	0.06 kcal/mol
TTATACACGTGACGGG	0.16 kcal/mol

Sequence	relative binding free energy
TATTGCACGTGTTTAT	-0.14 kcal/mol
GTGGACACGTGGTGCA	-0.09 kcal/mol
TTATCCACGTGGTGAG	0.01 kcal/mol
ATAGGCACGTGGTTAT	-0.11 kcal/mol
TATTACACGTGGATTA	-0.02 kcal/mol
ATAGGCACGTGGATGC	-0.1 kcal/mol
TCATTCACGTGGTTGA	0.16 kcal/mol
TGGGGCACGTGCTGTC	-0.12 kcal/mol
TAGGTCACGTGAGCGT	0.24 kcal/mol
CGGTACACGTGGGTAT	-0.17 kcal/mol
TGCATCACGTGGGTTT	-0.04 kcal/mol
GGTGTCACGTGATGCA	0.07 kcal/mol
ATCGGCACGTGATGCG	0.06 kcal/mol
TCCGTCACGTGGCGTG	0.05 kcal/mol
CTTGGCACGTGGTGTA	-0.18 kcal/mol
CGTTACACGTGGGGCT	0.12 kcal/mol
GAGTGCACGTGGCAGT	0.01 kcal/mol
GATAGCACGTGTGTAG	0.05 kcal/mol
TGTTTCACGTGGACAA	0.28 kcal/mol
ATTTACACGTGTAGTC	0.19 kcal/mol
GACTGCACGTGTAGGT	0.07 kcal/mol
GAATGCACGTGGTATG	0.08 kcal/mol
ATAGGCACGTGGGGCA	-0.39 kcal/mol
TACAGCACGTGTGGTG	-0.01 kcal/mol
GTATGCACGTGAGTTC	0.33 kcal/mol
GTAGGCACGTGTTGGC	0.05 kcal/mol

Sequence	relative binding free energy
AGGGCCACGTGCGCGG	-0.28 kcal/mol
TTGTCCACGTGAGGAG	0.27 kcal/mol
TGCTTCACGTGTATGG	0.12 kcal/mol
CGGACCACGTGGTGTG	-0.21 kcal/mol
TAATTCACGTGAGTGC	0.4 kcal/mol
AGAATCACGTGCGGTA	0.27 kcal/mol
ATAATCACGTGATTGT	0.26 kcal/mol
TTACACACGTGGGGGG	-0.11 kcal/mol
TTAATCACGTGGATTG	0.04 kcal/mol
GGTTTCACGTGTTTAT	0.29 kcal/mol
ATACGCACGTGTATGT	-0.13 kcal/mol
ATTCGCACGTGAGGTG	0.15 kcal/mol
TCTTGCACGTGTTCAG	0.01 kcal/mol
CGAGGCACGTGGGCGC	-0.26 kcal/mol
TACTGCACGTGTAGGG	-0.01 kcal/mol
GCAGGCACGTGAGCGG	-0.02 kcal/mol
GTAGACACGTGGCTGG	0.07 kcal/mol
CATATCACGTGTTGGT	0 kcal/mol
TTTGACACGTGATTAT	0.12 kcal/mol
GTAGTCACGTGTTTCT	0.2 kcal/mol
AGTTTCACGTGGGTTA	0.25 kcal/mol
AGGTACACGTGGCTTG	-0.09 kcal/mol
TGAGTCACGTGATTGT	0.19 kcal/mol
GGTGACACGTGATGGG	0.21 kcal/mol
GGGGACACGTGATAAT	0.24 kcal/mol
TCTTTCACGTGTTGAT	0.17 kcal/mol

Sequence	relative binding free energy
GTGGTCACGTGAGTTC	0.29 kcal/mol
AGTTACACGTGTGTAA	0.07 kcal/mol
GTAGTCACGTGGTGCT	0.1 kcal/mol
GTGTGCACGTGTAGCG	0.07 kcal/mol
TTGGTCACGTGGAGGC	0.2 kcal/mol
GGTTCCACGTGGCGTT	-0.03 kcal/mol
CTGGACACGTGTGTAG	0.16 kcal/mol
GGGGGCACGTGTTTTA	-0.08 kcal/mol
GGAGCCACGTGGTTTT	0.02 kcal/mol
TTTCTCACGTGGTAAG	0.1 kcal/mol
TTTGTCACGTGTGCTA	0.16 kcal/mol
AAAAACACGTGGTTTT	0.04 kcal/mol
ATTGGCACGTGTCATT	-0.07 kcal/mol
CTGTACACGTGTTGAT	-0.02 kcal/mol
TACGTCACGTGGGTCT	0.02 kcal/mol
GGGTACACGTGTATAG	0.09 kcal/mol
TTTGCCACGTGTTGAT	-0.16 kcal/mol
GATTGCACGTGGAATT	0.23 kcal/mol
CATTGCACGTGGGGGT	0.03 kcal/mol
CGGTTCACGTGTTTTT	0.16 kcal/mol
GTTTGCACGTGATCGT	0.08 kcal/mol
AGCGTCACGTGTGCGT	0 kcal/mol
TATATCACGTGTGTCG	0.04 kcal/mol
GTGGGCACGTGGTCTC	-0.19 kcal/mol
CATATCACGTGTATGT	0.12 kcal/mol
ATGGTCACGTGGGGTG	-0.08 kcal/mol

Sequence	relative binding free energy
TCTGGCACGTGGCGCT	0.03 kcal/mol
TTTTCCACGTGAGTTT	0.45 kcal/mol
ATGAGCACGTGGTTCT	-0.05 kcal/mol
CGTGGCACGTGGCGTA	-0.19 kcal/mol
TGGGCCACGTGGGCCG	-0.13 kcal/mol
GGCTTCACGTGGTTCG	0.3 kcal/mol
GTGTTCACGTGTCGAG	0.31 kcal/mol
ATGTTCACGTGCGAGT	0.24 kcal/mol
GGGTACACGTGCTTTG	-0.04 kcal/mol
GTGTTCACGTGTCAGT	0.2 kcal/mol
TGCTGCACGTGCTTGT	-0.18 kcal/mol
TCTTTCACGTGTGTTT	0.28 kcal/mol
TGAGCCACGTGAGGAG	0.11 kcal/mol
CTGGTCACGTGATGTT	0.17 kcal/mol
CGCAGCACGTGGGGTA	-0.26 kcal/mol
CGTTGCACGTGGGTAT	-0.29 kcal/mol
GGGCGCACGTGTGGAA	0.03 kcal/mol
TGGGACACGTGTAGAG	0.16 kcal/mol
TTGGTCACGTGCTGCG	-0.01 kcal/mol
AGTGGCACGTGCTTGA	-0.31 kcal/mol
GGTCTCACGTGTTAGT	0.19 kcal/mol
TGGGGCACGTGCTTTA	-0.19 kcal/mol
ATGGGCACGTGGTCTG	-0.16 kcal/mol
GGGGACACGTGATCTG	0.11 kcal/mol
GCTTTCACGTGGCATG	0.26 kcal/mol
ATATGCACGTGTTGGC	-0.1 kcal/mol

Sequence	relative binding free energy
AGATGCACGTGGTGAA	-0.11 kcal/mol
GTACGCACGTGTTGTT	-0.09 kcal/mol
AATAACACGTGTAGTG	-0.05 kcal/mol
AGGAGCACGTGGTGGG	-0.15 kcal/mol
GTTAGCACGTGCTGGA	-0.11 kcal/mol
GGTTACACGTGTCAGG	-0.01 kcal/mol
TTCGGCACGTGGTGGC	-0.13 kcal/mol
ACTTTCACGTGTTGAT	0.14 kcal/mol
GTGCACACGTGGGAGG	0.02 kcal/mol
TAGGACACGTGGAGTT	-0.06 kcal/mol
TAGTACACGTGAATAG	0.45 kcal/mol
TCGTTCACGTGTCGGG	0.19 kcal/mol
TTGTACACGTGGTTTT	0.11 kcal/mol
CATGTCACGTGGGGCT	-0.1 kcal/mol
GTGGGCACGTGTGGAC	-0.03 kcal/mol
TAGTTCACGTGCTGGT	0.3 kcal/mol
ACGAGCACGTGGGGGT	-0.23 kcal/mol
TCTTGCACGTGTAAGG	0.12 kcal/mol
TGTATCACGTGGGTGC	-0.02 kcal/mol
TAGGCCACGTGTGAGA	0.04 kcal/mol
ACTTTCACGTGGGTTT	0.11 kcal/mol
ATTGTCACGTGGCGTC	0.03 kcal/mol
